Binding signal data for 31 molecules are collected here from paper PMC9911399, “Two distinct binding modes provide the RNA-binding protein RbFox with extraordinary sequence specificity”.

Residue numbers refer to the chain shown, from its start. Some of the results follow.

The chains are these.
T1: RBFOX1 RRM RbFoxmut (Fox-RRM*) (Homo sapiens, UniProt Q9NWB1 109-208, R118D;E147R;N151S;E152T)
T1 sequence: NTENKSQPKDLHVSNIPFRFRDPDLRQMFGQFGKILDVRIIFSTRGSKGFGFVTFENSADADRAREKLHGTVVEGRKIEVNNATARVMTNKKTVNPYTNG

B1: AUAGAGG (DNA:RNA)
RNA: GGGAGACCGGAAUUCAGAUUGUCCAUAGAGGUUAAAUCCCGUCGUAGCCACCA
DNA 1: CAATCTGAATTCCGGTCTCCC
DNA 2: TGGTGGCTACGACGGGATT
B2: CGCGUGG (DNA:RNA)
RNA: B1 RNA with A25C, U26G, A27C, A29U
DNA 1: CAATCTGAATTCCGGTCTCCC
DNA 2: TGGTGGCTACGACGGGATT
B3: AUGGAUG (DNA:RNA)
RNA: B1 RNA with A27G, G30U
DNA 1: CAATCTGAATTCCGGTCTCCC
DNA 2: TGGTGGCTACGACGGGATT
B4: UUAGGAU (DNA:RNA)
RNA: B1 RNA with A25U, A29G, G30A, G31U
DNA 1: CAATCTGAATTCCGGTCTCCC
DNA 2: TGGTGGCTACGACGGGATT
B5: CCGGUUG (DNA:RNA)
RNA: B1 RNA with A25C, U26C, A27G, A29U, G30U
DNA 1: CAATCTGAATTCCGGTCTCCC
DNA 2: TGGTGGCTACGACGGGATT
B6: AUCCUCC (DNA:RNA)
RNA: B1 RNA with A27C, G28C, A29U, G30C, G31C
DNA 1: CAATCTGAATTCCGGTCTCCC
DNA 2: TGGTGGCTACGACGGGATT
B7: UAACUAG (DNA:RNA)
RNA: B1 RNA with A25U, U26A, G28C, A29U, G30A
DNA 1: CAATCTGAATTCCGGTCTCCC
DNA 2: TGGTGGCTACGACGGGATT
B8: GUCGUAG (DNA:RNA)
RNA: B1 RNA with A25G, A27C, A29U, G30A
DNA 1: CAATCTGAATTCCGGTCTCCC
DNA 2: TGGTGGCTACGACGGGATT
B9: CUAUAAU (DNA:RNA)
RNA: B1 RNA with A25C, G28U, G30A, G31U
DNA 1: CAATCTGAATTCCGGTCTCCC
DNA 2: TGGTGGCTACGACGGGATT
B10: UAACUUU (DNA:RNA)
RNA: B1 RNA with A25U, U26A, G28C, A29U, G30U, G31U
DNA 1: CAATCTGAATTCCGGTCTCCC
DNA 2: TGGTGGCTACGACGGGATT
B11: AUGCGAU (DNA:RNA)
RNA: B1 RNA with A27G, G28C, A29G, G30A, G31U
DNA 1: CAATCTGAATTCCGGTCTCCC
DNA 2: TGGTGGCTACGACGGGATT
B12: AUUCGCA (DNA:RNA)
RNA: B1 RNA with A27U, G28C, A29G, G30C, G31A
DNA 1: CAATCTGAATTCCGGTCTCCC
DNA 2: TGGTGGCTACGACGGGATT
B13: UAAUAUC (DNA:RNA)
RNA: B1 RNA with A25U, U26A, G28U, G30U, G31C
DNA 1: CAATCTGAATTCCGGTCTCCC
DNA 2: TGGTGGCTACGACGGGATT
B14: CCACGAA (DNA:RNA)
RNA: B1 RNA with A25C, U26C, G28C, A29G, G30A, G31A
DNA 1: CAATCTGAATTCCGGTCTCCC
DNA 2: TGGTGGCTACGACGGGATT
B15: CUUUUUC (DNA:RNA)
RNA: B1 RNA with A25C, A27U, G28U, A29U, G30U, G31C
DNA 1: CAATCTGAATTCCGGTCTCCC
DNA 2: TGGTGGCTACGACGGGATT
B16: GACGGCU (DNA:RNA)
RNA: B1 RNA with A25G, U26A, A27C, A29G, G30C, G31U
DNA 1: CAATCTGAATTCCGGTCTCCC
DNA 2: TGGTGGCTACGACGGGATT
B17: GCUCUCG (DNA:RNA)
RNA: B1 RNA with A25G, U26C, A27U, G28C, A29U, G30C
DNA 1: CAATCTGAATTCCGGTCTCCC
DNA 2: TGGTGGCTACGACGGGATT
B18: GAAUACU (DNA:RNA)
RNA: B1 RNA with A25G, U26A, G28U, G30C, G31U
DNA 1: CAATCTGAATTCCGGTCTCCC
DNA 2: TGGTGGCTACGACGGGATT
B19: UGCGUCU (DNA:RNA)
RNA: B1 RNA with A25U, U26G, A27C, A29U, G30C, G31U
DNA 1: CAATCTGAATTCCGGTCTCCC
DNA 2: TGGTGGCTACGACGGGATT
B20: CGUGGAC (DNA:RNA)
RNA: B1 RNA with A25C, U26G, A27U, A29G, G30A, G31C
DNA 1: CAATCTGAATTCCGGTCTCCC
DNA 2: TGGTGGCTACGACGGGATT
B21: GGGUCGU (DNA:RNA)
RNA: B1 RNA with A25G, U26G, A27G, G28U, A29C, G31U
DNA 1: CAATCTGAATTCCGGTCTCCC
DNA 2: TGGTGGCTACGACGGGATT
B22: GGUGAUA (DNA:RNA)
RNA: B1 RNA with A25G, U26G, A27U, G30U, G31A
DNA 1: CAATCTGAATTCCGGTCTCCC
DNA 2: TGGTGGCTACGACGGGATT
B23: UCCAAGU (DNA:RNA)
RNA: B1 RNA with A25U, U26C, A27C, G28A, G31U
DNA 1: CAATCTGAATTCCGGTCTCCC
DNA 2: TGGTGGCTACGACGGGATT
B24: UCCCCUA (DNA:RNA)
RNA: GGGAGACCGGAAUUCAGAUUGUCCUCCCCUAUUAAAUCCCGUCGUAGCCACCA
DNA 1: CAATCTGAATTCCGGTCTCCC
DNA 2: TGGTGGCTACGACGGGATT
B25: CGCGCUG (DNA:RNA)
RNA: B24 RNA with U25C, C26G, C28G, A31G
DNA 1: CAATCTGAATTCCGGTCTCCC
DNA 2: TGGTGGCTACGACGGGATT
B26: UUAACAA (DNA:RNA)
RNA: B24 RNA with C26U, C27A, C28A, U30A
DNA 1: CAATCTGAATTCCGGTCTCCC
DNA 2: TGGTGGCTACGACGGGATT
B27: CGGUGCG (DNA:RNA)
RNA: B1 RNA with A25C, U26G, A27G, G28U, A29G, G30C
DNA 1: CAATCTGAATTCCGGTCTCCC
DNA 2: TGGTGGCTACGACGGGATT
B28: GGAUCGC (DNA:RNA)
RNA: B1 RNA with A25G, U26G, G28U, A29C, G31C
DNA 1: CAATCTGAATTCCGGTCTCCC
DNA 2: TGGTGGCTACGACGGGATT
B29: AUACGUA (DNA:RNA)
RNA: B1 RNA with G28C, A29G, G30U, G31A
DNA 1: CAATCTGAATTCCGGTCTCCC
DNA 2: TGGTGGCTACGACGGGATT
B30: CGCUUUU (DNA:RNA)
RNA: B24 RNA with U25C, C26G, C28U, C29U, A31U
DNA 1: CAATCTGAATTCCGGTCTCCC
DNA 2: TGGTGGCTACGACGGGATT
B31: GUGACGA (DNA:RNA)
RNA: B1 RNA with A25G, A27G, G28A, A29C, G31A
DNA 1: CAATCTGAATTCCGGTCTCCC
DNA 2: TGGTGGCTACGACGGGATT

The assay deals with T1, RBFOX1 RRM RbFoxmut (Fox-RRM*). Kind of assay: EMSA; HiTS-Eq, 1 nM pool, 10 min; buffer printed only for the single-RNA assays: 10 mM Tris pH 7.5, 150 mM NaCl, 3.4 mM EDTA, 0.001% NP-40, 30 C. The following applies: tags: His6 N-terminal (pET28a); label: 5' 32P. In short, it runs like this:
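These values rest on relative association constants, computed from read-count changes of each RNA species versus the control reaction and normalised to the cognate motif. Reads came from free RNA recovered by 8% native PAGE after purified RbFox RRM (wild type or mutant) at increasing concentrations was equilibrated for 10 min in 50 µL with 1 nM of a 5′-radiolabelled pool with 7 randomized nucleotides and DNA-annealed flanks.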
In general terms: A gel shift assay detects complexes by their altered migration in electrophoresis.
B1: the binding signal is 0.099 KA relative to UGCAUGU. B2: the binding signal was 0.0774 KA relative to UGCAUGU. Turning to B3, the binding signal was 0.64 KA relative to UGCAUGU.

In the case of B4, the binding signal is 0.0802 KA relative to UGCAUGU. For B5, the binding signal is 0.144 KA relative to UGCAUGU. On to B6, for which the binding signal was 0.0649 KA relative to UGCAUGU. The same measure for B7: 0.0916 KA relative to UGCAUGU; for B8: 0.145 KA relative to UGCAUGU; for B9: 0.0681 KA relative to UGCAUGU. Take B10: the binding signal is 0.0596 KA relative to UGCAUGU. The same measure for B11: 0.0711 KA relative to UGCAUGU. On to B12, for which the binding signal was 0.157 KA relative to UGCAUGU. For B13, the binding signal was 0.0732 KA relative to UGCAUGU.

Turning to B14, the binding signal was 0.107 KA relative to UGCAUGU. Turning to B15, the binding signal was 0.065 KA relative to UGCAUGU. Consider B16, for which the binding signal is 0.0872 KA relative to UGCAUGU. The same measure for B17: 0.0947 KA relative to UGCAUGU. Turning to B18, the binding signal was 0.0832 KA relative to UGCAUGU. The same measure for B19: 0.119 KA relative to UGCAUGU; for B20: 0.0801 KA relative to UGCAUGU. Consider B21, for which the binding signal is 0.281 KA relative to UGCAUGU. For the molecule B22, the binding signal is 0.125 KA relative to UGCAUGU. On to B23, for which the binding signal was 0.112 KA relative to UGCAUGU.

As to B24, the binding signal was 0.0435 KA relative to UGCAUGU. On to B25, for which the binding signal is 0.104 KA relative to UGCAUGU.

With B26, the binding signal is 0.0681 KA relative to UGCAUGU. Turning to B27, the binding signal was 0.206 KA relative to UGCAUGU. B28: the binding signal was 0.23 KA relative to UGCAUGU. Consider B29, for which the binding signal is 0.162 KA relative to UGCAUGU. B30: the binding signal was 0.0868 KA relative to UGCAUGU. As to B31, the binding signal is 0.0505 KA relative to UGCAUGU.
